Experimental data from publication PMC4336329 (PLoS ONE, 2015).
Hit rate of the full screen: of about 310,000 compounds, about 2,200 (0.71%) showed an effect of 50% or more. The effect is printed as a negative number. Some of the results follow.

Each compound was assayed against human ether-à-go-go-related gene (hERG) potassium channel (human, UniProt Q12809) (assay: primary screen, population patch clamp on CHO cells stably expressing hERG).
Chain of human ether-à-go-go-related gene (hERG) potassium channel (Q12809 whole entry, looked up): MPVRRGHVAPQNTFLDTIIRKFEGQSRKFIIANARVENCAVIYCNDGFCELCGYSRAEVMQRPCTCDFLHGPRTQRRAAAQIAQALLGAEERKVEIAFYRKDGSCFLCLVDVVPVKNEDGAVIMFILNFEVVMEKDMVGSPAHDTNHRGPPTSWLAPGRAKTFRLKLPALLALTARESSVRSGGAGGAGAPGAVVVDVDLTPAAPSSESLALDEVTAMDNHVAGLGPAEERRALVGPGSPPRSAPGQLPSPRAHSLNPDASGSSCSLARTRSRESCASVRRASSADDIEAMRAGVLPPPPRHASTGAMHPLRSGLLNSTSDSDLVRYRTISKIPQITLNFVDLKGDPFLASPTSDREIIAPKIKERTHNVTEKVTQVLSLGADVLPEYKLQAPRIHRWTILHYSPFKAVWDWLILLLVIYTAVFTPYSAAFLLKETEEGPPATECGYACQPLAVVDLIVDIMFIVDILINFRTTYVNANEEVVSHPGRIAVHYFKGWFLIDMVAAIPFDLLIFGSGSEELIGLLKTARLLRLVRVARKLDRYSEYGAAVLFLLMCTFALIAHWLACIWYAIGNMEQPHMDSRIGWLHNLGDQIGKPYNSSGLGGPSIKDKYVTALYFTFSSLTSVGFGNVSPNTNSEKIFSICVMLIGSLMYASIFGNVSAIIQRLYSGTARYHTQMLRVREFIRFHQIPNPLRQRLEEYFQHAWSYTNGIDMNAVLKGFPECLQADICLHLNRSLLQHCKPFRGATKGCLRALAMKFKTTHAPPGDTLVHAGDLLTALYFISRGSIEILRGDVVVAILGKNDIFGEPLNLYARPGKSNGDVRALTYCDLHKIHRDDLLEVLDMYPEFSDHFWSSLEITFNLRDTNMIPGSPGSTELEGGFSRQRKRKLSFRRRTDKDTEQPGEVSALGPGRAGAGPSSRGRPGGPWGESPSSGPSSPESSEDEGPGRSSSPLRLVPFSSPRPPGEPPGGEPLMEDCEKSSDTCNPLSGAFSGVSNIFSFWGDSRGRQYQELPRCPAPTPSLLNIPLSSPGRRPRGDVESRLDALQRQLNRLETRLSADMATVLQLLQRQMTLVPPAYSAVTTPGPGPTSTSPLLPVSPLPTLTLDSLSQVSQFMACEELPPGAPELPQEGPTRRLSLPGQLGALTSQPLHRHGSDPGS

Row | SMILES | hERG current change (%, negative = inhibition) at 1uM [%]
1 | O=C(C1=C(O)C(=O)N(Cc2ccccc2)C1c1cccnc1)c1ccco1 (stereo not drawn) | 3.89
2 | Cc1ccc(NCC(=O)N/N=C\c2ccc[nH]2)cc1 | 6.75
3 | Cc1ccccc1-n1c(-c2csc(C)c2C)n[nH]c1=S | 7.59
4 | C=CCn1c(C)nnc1SCC(=O)NC1CC1 | 11.7
5 | CC(C)CNC(=O)C(=O)NCC1OCCCN1S(=O)(=O)c1ccc2c(c1)OCCO2 (stereo not drawn) | 12.2
6 | Cc1cc(O)c(C(=O)Nc2cccc(Cl)c2)c(=O)n1C | 17
7 | O=C1CS/C(=N/N=C/c2cccs2)N1Cc1ccc(F)cc1 | 7.95
8 | CC(OC(=O)c1ccc2c(=O)n3c(nc2c1)CCC3)C(=O)Nc1ccc(C(N)=O)cc1 (stereo not drawn) | 6.17
9 | CCOc1ccccc1O[C@H](c1ccccc1)[C@H]1CNCCO1.CS(=O)(=O)O.O | 18.2
10 | Cc1ccc(N2CCC(N3CCN(C)C(CCO)C3)CC2)cc1 (stereo not drawn) | 13.9
11 | O=C(Oc1ccc[nH]c1=O)c1cc([N+](=O)[O-])cc([N+](=O)[O-])c1 | 7.41
12 | O=C(Cn1nnc2ccccc2c1=O)NCC1CCC(C(=O)O)CC1 (stereo not drawn) | 16.1
13 | CC(C)Cn1c(N)c(C(=O)CSc2ncnc3sc4c(c23)CCCC4)c(=O)n(C)c1=O | 2.03
14 | C=CCN(c1ccccc1)S(=O)(=O)c1cccc(C(=O)Nc2ncccc2O)c1 | 9.88
15 | O=C(O)C1CCN(C(=O)CSc2nc3ccccc3s2)CC1 | 10.9
16 | Cc1cc(Cl)ccc1OCCCC(=O)NCc1ccncc1 | -11.1
17 | O=C(CC1SC2=NCCN2C1=O)Nc1ccccc1 (stereo not drawn) | 4.6
18 | Cc1cc2ncn(-c3ncnc4sc5c(c34)CCCC5)c2cc1C | 4.3
19 | O=C(c1ccc(Cl)cc1)c1cnc2ccccn12 | 11.2
20 | CNC(=S)N/N=C/c1ccc(OCc2ccccc2)c(Br)c1 | 6.32
21 | O=C(NCc1cccc(Cl)c1)c1ccc2c(c1)SC1=NS(=O)(=O)CCN12 | 12.8
22 | COC(=O)C1=Nc2ccccc2/C1=C\c1c(O)n(-c2ccc(Br)cc2)c(=O)[nH]c1=O | 15.5

Row | SMILES | hERG current change (%, negative = inhibition) at 1uM [%]
23 | CCN(CC)c1ncccc1C(=O)NCc1cccs1 | 5.67
24 | CCn1c(SCC(=O)NC(=O)NCc2ccco2)nc2sc(C)c(C)c2c1=O | 7.46
25 | N#Cc1nc(COc2ccccc2)oc1NCCCn1ccnc1 | -28.3
26 | OCc1nc2ccccc2n1CCCOc1ccc(Br)cc1 | 13.9
27 | COC(=O)C(NC(=O)CSc1nc(N)cc(=O)[nH]1)c1ccccc1 (stereo not drawn) | 17.7
28 | CCCS(=O)(=O)N1CCCC(C(=O)NCCN(CC)CC)C1 (stereo not drawn) | 5.33
29 | O=C(O)COc1c(Cl)cc(/C=C2\NC(=O)NC2=O)cc1Br | 16.8
30 | O=C(COC(=O)CCCN1C(=O)c2cccc3cccc(c23)C1=O)Nc1cccc(C(F)(F)F)c1 | 4.08
31 | Cc1ccc(C(C)(C)C)cc1S(=O)(=O)Nc1ncnc2sccc12 | 7.99
32 | CCOC(=O)C[C@H]1c2ccc(C(F)(F)F)cc2S(=O)(=O)N1C(C)(C)C | 9.23
33 | COc1cc(C2C(=O)N(C3CCCC3)CC(=O)N2Cc2ccco2)ccc1OC(C)C (stereo not drawn) | 1.4
34 | COc1ccc(CC(=O)Nc2cccc(C(=O)Nc3ccccc3C(=O)O)c2)cc1OC | 14.6
35 | CC(C)c1nccn1S(=O)(=O)c1cccc([N+](=O)[O-])c1 | 5.68
36 | Cc1cc2ccccc2c(=O)n1CC(=O)NCC(=O)N1CCCC(C)C1 (stereo not drawn) | 16.4
37 | COc1ccc(CCNC(=O)c2cc3c(cc2Cl)N2CCCCCC2=NS3(=O)=O)cc1 | -8.34
38 | Cc1ccc(Nc2c(-c3ccccc3)nc3cnccn23)cc1 | 11.3
39 | COc1ccc(CNC(=O)Cc2cccs2)cc1 | 18.5
40 | COc1ccc(CNC(=O)C2CCN(S(=O)(=O)c3ccc4c(c3)NC(=O)C(C)S4)CC2)cc1 (stereo not drawn) | 7.4
41 | COc1ccc(/C(N)=N/OC(=O)Cc2ccccc2)cc1 | -1.47
42 | CCOc1ccc(S(=O)(=O)N2CCCC(C(=O)NCc3cccnc3)C2)cc1Cl (stereo not drawn) | -1.43
43 | COc1ccc(CNC(=O)C2CCN(S(C)(=O)=O)CC2)c(OC)c1 | 5.97
44 | COC(=O)c1cc(=O)nc2scc(C)n12 | -1.51

Row | SMILES | hERG current change (%, negative = inhibition) at 1uM [%]
45 | CNC(=O)c1cc2cc(OC)ccc2n1CCN(C)C | 6.7
46 | COc1ccccc1NC(=O)CSc1ccc2nnc(CCNC(=O)c3ccccc3)n2n1 | 17.4
47 | COCCNc1oc(/C=C/c2ccccc2)nc1C#N | 7.53
48 | CC(C)C(=O)c1cn(CC(=O)NCc2ccco2)c2ccccc12 | 21.8
49 | CCCCN(CC)CCCNC(=O)c1ccc2c(c1)N(CC)C(=O)c1ccccc1S2(=O)=O | 9.42
50 | CNC(=O)COc1ccc(S(=O)(=O)Nc2ccc(OC)cc2)cc1 | 16.1
51 | O=C(Nc1ccccc1-c1nnn(CC(=O)N2CCCc3ccccc32)n1)c1cccc(Cl)c1 | 8.6
52 | Cc1cc(C(F)(F)F)n2nc(C)c(-c3ccc(Cl)cc3)c2n1 | 12.9
53 | CCOC(=O)C1CCN(S(=O)(=O)c2ccc(Cl)cc2)CC1 | 5.42
54 | COc1ccc([C@@H]2CC=C(C(=O)O)[C@H](c3cccc(Cl)c3)N2S(=O)(=O)c2ccccc2C)cc1 | 22.1
55 | Cc1ccc2[nH]c(=O)c(CN(C)S(=O)(=O)c3cccc4nonc34)cc2c1 | 18
56 | COc1cccc(CSc2nnc(-c3ccncc3)n2N)c1 | 9.23
57 | CC(Cc1c[nH]c2ccccc12)C(=O)NCc1ccco1 (stereo not drawn) | 5.07
58 | CC1CCCC(C)N1S(=O)(=O)c1ccc(NC(=O)CNCC2CCCO2)cc1.O=C(O)C(=O)O (stereo not drawn) | -6.48
59 | O=Cc1c(NCCN2CCOCC2)c2ccccc2[nH]c1=O | 24.1
60 | O=C1CN(C(=O)COc2ccc(Br)cc2)c2ccccc2N1 | 7.44
61 | COc1ccc(-n2nc(C(=O)NCC(=O)NCC3COc4ccccc4O3)c3ccccc3c2=O)cc1OC (stereo not drawn) | 7.16
62 | CCOC(=O)c1ccc2cccc(C)n2c1=O | 5.86
63 | NNC(=O)CNC(c1ccccc1)c1cc(Br)ccc1NC(=O)c1ccccc1Br (stereo not drawn) | -3.12
64 | COc1ccc2oc(=O)c(C(=O)N3CCN(C(=O)c4ccco4)CC3)cc2c1 | 4.72
65 | O=C(COc1ccc2ccccc2c1)NCCNC(=O)COc1ccc2ccccc2c1 | 14.8
66 | CCOC(=O)N1CCN(Cc2nc3c(c(=O)n(C)c(=O)n3C)n2Cc2cccc3ccccc23)CC1 | -2.27

Row | SMILES | hERG current change (%, negative = inhibition) at 1uM [%]
67 | CCCCn1c(SCC(=O)Nc2nnc(CC)s2)nc2c1c(=O)n(C)c(=O)n2C | 0.776
68 | CCOc1ccc(CCNC(=O)Cn2ncn3nc(-c4ccc(OC)cc4)cc3c2=O)cc1OCC | 4.27
69 | O=C(Cc1ccccc1)c1c[nH]c(C(=O)C(Cl)(Cl)Cl)c1 | 11.4
70 | CCOc1ccc(Cn2ccnc2CCl)cc1[N+](=O)[O-] | -6.9
71 | CCN(CC(=O)Nc1ccc(NC(C)=O)cc1)C(=O)CSc1ncnc2sc(C)c(C)c12 | 11
72 | COc1ccc(C(=O)NC2CCN(CC(=O)NCc3cccc(OC)c3)CC2)cc1 | 2.46
73 | CCCn1c2ccccc2c2nnc(SC(CC)C(=O)Nc3sc4c(c3C#N)CCCC4)nc21 (stereo not drawn) | 16.1
74 | COc1cccc(NC(=O)CSc2nccn(-c3ccc4c(c3)OCCO4)c2=O)c1 | 4.61
75 | Cc1csc(NS(=O)(=O)c2ccc(Cl)cc2)n1 | -0.497
76 | COc1ccc(-c2nn(-c3ccccc3)cc2CNC(C)Cn2cncn2)c(F)c1 (stereo not drawn) | 2.88
77 | COc1ccccc1NC(=O)COC(=O)c1cc([N+](=O)[O-])ccc1N1CCCC1 | 5.09
78 | CSc1ccccc1C(=O)Nc1nc2ccccc2c(=O)[nH]1 | 12.8
79 | COc1ccc(Cn2nnnc2C(c2ccc(C)cc2)N2CCN(C3CCCC3)CC2)cc1.Cl (stereo not drawn) | -32.4
80 | O=C(N/N=C/c1ccccc1)c1ccc(N2CCOCC2)c([N+](=O)[O-])c1 | 0.857
81 | COc1ccc(Oc2ccccc2/C=N/O)cc1 | 8.34
82 | Cc1c(CCC(=O)O)c(=O)oc2cc(OCc3ccccc3F)ccc12 | 15.5
83 | O=C(Nc1cccc(C(=O)N2CCCCC2)c1)c1ccc(Cl)cc1 | 16.6
84 | CCN1C(=O)C2C(c3ccccc3F)NC(Cc3ccc(O)cc3)(C(=O)OC)C2C1=O (stereo not drawn) | 6.5
85 | COc1ccc(C(=NN)c2ccc(OC)cc2)cc1 | 3.04
86 | CC(C)OCCCN1C(=O)c2[nH]nc(-c3ccccc3O)c2C1c1cccc(Cl)c1 (stereo not drawn) | -9.21
87 | Cc1noc(C)c1COc1ccccc1C(=O)NCc1ccco1 | 11.3
